From paper PMC12136788
Some of the results follow.

T1: UNK ZnF1-3 (human, UniProt Q9C0B0 31-174)
T1 sequence: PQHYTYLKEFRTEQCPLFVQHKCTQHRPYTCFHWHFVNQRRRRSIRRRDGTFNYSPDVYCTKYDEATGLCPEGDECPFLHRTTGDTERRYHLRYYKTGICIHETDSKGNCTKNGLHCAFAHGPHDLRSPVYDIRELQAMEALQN

B1: chr15:23003119:23003120:+_ENSG00000068793_ENST00000560848|hu_hu|FALSE|FALSE (ssRNA)
RNA: GGGAGUUCUACAGUCCGACGAUCUUUUUAGAUCGAAAAGCACCCCCUUUAACAGGUACAGAGAUACUGAAAAAUAGUCCCUAAAAAUCUCACUAAAUAGUUUACGGAGAGAAAGGCAUGCCAUGUUGAGUUACGGAGUGCAGCCAACAGAGGAUUGAGCAUCA
B2: chr15:31387667:31387668:-_ENSMUSG00000039100_ENSMUST00000090227|mus_mus|motif|central (ssRNA)
RNA: GGGAGUUCUACAGUCCGACGAUCUGGGCCCUCAGACCUUUCCAACUAUGGGUUUAAUACUCCAUGGAACUCUUUACAGUCGGUGAAAGCUUCUAGCACUAUCCUUAUAAUACACCUUUACCAUUAAACACUUGAAUGACGUACCAACAGAGGAUUGAGCAUCA
B3: 118334292_118334412_3697_CDS_ENSMUSG00000030138_ENSMUST00000032237|mouse|control|control (ssRNA)
RNA: GGGAGUUCUACAGUCCGACGAUCCUGCCUGUCCCUCGGCACUUUGCCUGCCUUUGCUUGAGUCUUGGGUUUGUUCUUAAAUGGCAGAGCCUUCUGCAAGGCUUUGGGAAUGUGCAGUGAAUUAAAAUGUUUCUUUUGUCUCAGCAACAGAGGAUUGAGCAUCA
B4: chr1:225611761:225611762:-_ENSG00000143815_ENST00000272163|hu_mus|hu_hu_hu_mus_True|58_108 (ssRNA)
RNA: GGGAGUUCUACAGUCCGACGAUCCCAGGCCAUCGACCUCUGACCACUUCACCCUCAACAAACUUCCUACUUGGCAUUUUCUAUAAUUAGUCUGGCCGCGCUCCGGCGGGAACUCCAGCCACUCCAGGACAGUCACCAGCAGCCCAACAGAGGAUUGAGCAUCA
B5: chr11:95532483:95532484:+_ENSG00000166037_ENST00000540830|hu_mus|FALSE|FALSE (ssRNA)
RNA: GGGAGUUCUACAGUCCGACGAUCGCUGUUGCUUUCCGGAUAGGCAAAUGUGGGCUUAUUUGGGGAGCGUCUCAGAUCACUGUUAAGGAAAGGCUUAUCAGGUGGAUACAAUACAUAUGGAGACGAAGAAUGACGAACCAUAUUCAACAGAGGAUUGAGCAUCA
B6: chr16:22014287:22014288:+_ENSMUSG00000022855_ENSMUST00000023561|mus_mus|FALSE|FALSE (ssRNA)
RNA: GGGAGUUCUACAGUCCGACGAUCAGAGUUCGAAAAGACCUCUCCAGAAGGGGCCACAUUCCGUGUUCCAUUACAAGCAGAAGACACCAUGGGUUUUGUGGUCAGCUGGAACGGGAAUCCAAAUAAACUGGCAGCAUUGUAGAGCAACAGAGGAUUGAGCAUCA
B7: chr12:86613709:86613710:-_ENSMUSG00000008822_ENSMUST00000008966|mus_mus|motif|central (ssRNA)
RNA: GGGAGUUCUACAGUCCGACGAUCCUGCAGUUGCCCUUGCACGGUGCCCCGGUCGGUGUUCUGAACCCAGCCCACCAAACCGGGCUUUUUACCCUCAGCCUGAGUGUACUUGCGGAAAAACACCCCUUGAACCUUUCCAAAAAUCAACAGAGGAUUGAGCAUCA
B8: chr14:66974463:66974464:+_ENSMUSG00000022044_ENSMUST00000074523|mus_hu|mus_mus_mus_hu_False|78_108 (ssRNA)
RNA: GGGAGUUCUACAGUCCGACGAUCUUGUAGGAUGAUUUAUUCAGGGGAUCGGCCAGGAAGCAAGAGCAGAACAAGGACACCAGCGGGAGCUCCUUCAUCUUCUCUUUGUAGGCAGCAAGGGUCAUGUUUCUGGGAUCUGGUGGCCAACAGAGGAUUGAGCAUCA
B9: chr14:90871172:90871173:+_ENSG00000198668_ENST00000553542|hu_hu|FALSE|FALSE (ssRNA)
RNA: GGGAGUUCUACAGUCCGACGAUCAAUACAUGCAGAUUUUGUGUGUGUGGACAGAAGGUACUUUUGACAUUCAGUUUUGCUAUAUAGAAACAGAAUGAAUAAAUGAACUUUUUUCUUUUUUCUUUUUUUUGCAAGAGGUAAGUACAACAGAGGAUUGAGCAUCA
B10: chr10:33218917:33218918:-_ENSG00000150093_ENST00000302278|perfect_dup|FALSE|FALSE (ssRNA)
RNA: GGGAGUUCUACAGUCCGACGAUCAGAGCCUCUGGGAUUCUCUAUGUCACUUGGCUGGCAACCCUUCUUUUUCAAAGCUUCUAAAUCAUCACAUCGUGCAGAAGUAGGCAUUCCUUCUUGCAAAAAUGUCGUAUUUGUACACCACAACAGAGGAUUGAGCAUCA
B11: chr14:60920330:60920331:+_ENSMUSG00000021987_ENSMUST00000022563|mus_mus|motif|central (ssRNA)
RNA: GGGAGUUCUACAGUCCGACGAUCGCAAAAUCUCCACUACCCGCACUUCCCUUUUUCCUUUACCUGAAAGUUUAUAGGCAGCGGCAGUCAAGUUAAAAAUGUAUUUAGUACUCAGAACGCUUUAGAGCUUUGCCACUUUAAAUGCAACAGAGGAUUGAGCAUCA
B12: chr3:138219032:138219033:+_ENSMUSG00000028156_ENSMUST00000029803|mus_hu|FALSE|FALSE (ssRNA)
RNA: GGGAGUUCUACAGUCCGACGAUCUGUUACAUGAGGAAAAAAACAAAAGCAAAACAAAUGAAAAACUGAAAUCAGAAUCACUAAUAUUAUCAAGUAGGGAAACAAAUAAAUUAAAAUCUAGCAGCCAUCAGCAAGAGUACAGCACAACAGAGGAUUGAGCAUCA
B13: chr22:19452774:19452775:-_ENSG00000070010_ENST00000399523|hu_hu|hu_hu_hu_mus_False|38_78 (ssRNA)
RNA: GGGAGUUCUACAGUCCGACGAUCCUUCUCAUUGUAGUUGAUAGCAAUCACAUCUCCGGUGGUCAGACAGGCGAAGUUUCUCAAUGCAUUUUCUAAUACGGCUUUGGGGUUGGUAAUAUCCAGGAAGUCUGGGCUCUGAGGCUGCAACAGAGGAUUGAGCAUCA
B14: chr1:95363323:95363324:-_ENSG00000117519_ENST00000538964|hu_hu|motif|central (ssRNA)
RNA: GGGAGUUCUACAGUCCGACGAUCAAGGACUAAAUACUGAGCUCCUUCUGUGUGGAUCUAAUAAUCAAUGCCUUGGUCGCGGUAUUGGUAAUCUCUGGGGUAGUCAUCCUGGUACUCGCCAUGAUACUCAUCAGGGUAUUCUGCCAACAGAGGAUUGAGCAUCA
B15: 231487157_231487277_954_CDS_ENSG00000010072_ENST00000295050|human|control|control (ssRNA)
RNA: GGGAGUUCUACAGUCCGACGAUCUGCCUUUCCUUUGCCUUUUUUUGAGUAAUUCUCUGGUUCCUUGAUUUUUAUGUAAGUGCCUCCACAGGUUUUCUGGUGCUCAGCCCACCAAUAGUCAUGAGCAGAGGGUUCCCUGUUAGUCAACAGAGGAUUGAGCAUCA
B16: chr7:23547099:23547100:-_ENSG00000164548_ENST00000297071|hu_hu|FALSE|FALSE (ssRNA)
RNA: GGGAGUUCUACAGUCCGACGAUCUGGUCUGCCCAUGUAGAUGCCUGGUGUUGGUGUGUGCGCUCUCUUGGUUAUAGAAUAAUCCACCCGAAUUCUUCUACCAUCCAGCUCCAUUCCAUUUGCCCUUUCCAUAGCCUCCUUUGACAACAGAGGAUUGAGCAUCA
B17: chrX:12728449:12728450:+_ENSMUSG00000031010_ENSMUST00000089302|perfect_dup|motif|central (ssRNA)
RNA: GGGAGUUCUACAGUCCGACGAUCAUGUCCUAAAGCUUUUAAAGCUUCAUCUAAACUAUCCACCAAUGAAUUAAAAAAUUCGGAAGCAUCGUGUUGUUCACGCAGAUUAACAGGCUCACCCCAAAGCCUGAACUGUUUCCAAAACAACAGAGGAUUGAGCAUCA
B18: chr17:35971825:35971826:-_ENSMUSG00000001525_ENSMUST00000001566|mus_hu|FALSE|FALSE (ssRNA)
RNA: GGGAGUUCUACAGUCCGACGAUCUGAGCGCCUACUAUGUGCCAGGCACUGUUCUAGACCCCCCCCAGAAGAAAAAACAAAAAACAAGAUAGAGGCAGCAAACACAAAUUCUGAGGGAGAGGAAAGGGGCAGUUGAGUAAGACGCAACAGAGGAUUGAGCAUCA
B19: chr10:33190432:33190433:-_ENSG00000150093_ENST00000302278|hu_mus|hu_hu_hu_mus_True|98_98 (ssRNA)
RNA: GGGAGUUCUACAGUCCGACGAUCUACAUUUUCCAAACCUGCACAUGAAUAAAACCCUGGCCACAGAGCCCCAAAACUACCCUACUGUGACUAAGAUGCUGCUGCUGUGAGCUUGGUGUUGCAAAAUCCGCCUGAGUAGGAUUCCAACAGAGGAUUGAGCAUCA
B20: chr3:47164985:47164986:-_ENSG00000181555_ENST00000409792|hu_mus|FALSE|FALSE (ssRNA)
RNA: GGGAGUUCUACAGUCCGACGAUCUCUUUCGGACCGACAUCGGGAAGAUACAUACCGAGUAUCUCGUUCAAGUUUUGAGUAGCUACAAUAUCUAUCAUCUCUCUCUGUUUUCGAUCUUGAUGAUUUCCCCAAAUCCUCACUUUUCAACAGAGGAUUGAGCAUCA
B21: chr13:76104392:76104393:-_ENSG00000188243_ENST00000355801|hu_hu|FALSE|FALSE (ssRNA)
RNA: GGGAGUUCUACAGUCCGACGAUCAUACUUAAGAGAUCUGCAAGUGUCUGAGCUCACAGCCAUACCCAGUUUCCACUGAAAAUCUACAAGCUGGUUGGUGACAUCGGACUUAGCAUCCAGCGGCGGCUCGCUGGACGCCUCCAUCAACAGAGGAUUGAGCAUCA
B22: chr3:125216745:125216746:-_ENSG00000114520_ENST00000251775|hu_mus|motif|central (ssRNA)
RNA: GGGAGUUCUACAGUCCGACGAUCGAAGAUUUUGUCUCUACAAAGGACAGGAUGUGAAGCAACCCUCAAGAGGAAGUUUUCGGAGCCCACGCGUCGUCUCUCCACAAAGUCUGGGUCCAUGUUGUCAGCAGAGAGUUUAUGCCACAACAGAGGAUUGAGCAUCA

Each binder was assayed against T1, UNK ZnF1-3 (assay: nsRBNS (natural sequence RNA bind-n-seq); RBNS binding buffer (assumed for nsRBNS): 25 mM Tris pH 7.5, 150 mM KCl, 3 mM MgCl2, 0.01% Triton X-100, 500 ug/ml BSA, 20 U/ml SUPERase-In, 4 C; UNK is unkempt and MSI1 is Musashi-1; names of the RNAs are library labels; protein concentration not given here; high values mean tight binding).

Binder	binding signal [enrichment R]
B1	1.42
B2	0.722
B3	0.649
B4	1.36
B5	1.53
B6	1.46
B7	0.953
B8	2.41
B9	1.18
B10	0.789
B11	1.19
B12	2.42
B13	1.12
B14	0.506
B15	0.512
B16	0.625
B17	1.65
B18	2.22
B19	1.2
B20	0.663
B21	0.651
B22	1.49
